In PubChem BioAssay AID485344 (National Center for Advancing Translational Sciences (NCATS), 2010) one finds inhibition data, which are given here for 96 compounds.

Hit rate of the full screen: of about 340,000 compounds, about 6,900 (2%) were called active. Cut-off read from the data, not from the text of the source: active = inhibition above about 30%; inactive = below that, where a call was filed. This is a selection; strong and weak results do not stand in their true shares. Where no call is shown, the source filed none.

UniProt P14416, sequence (P14416 whole entry, looked up): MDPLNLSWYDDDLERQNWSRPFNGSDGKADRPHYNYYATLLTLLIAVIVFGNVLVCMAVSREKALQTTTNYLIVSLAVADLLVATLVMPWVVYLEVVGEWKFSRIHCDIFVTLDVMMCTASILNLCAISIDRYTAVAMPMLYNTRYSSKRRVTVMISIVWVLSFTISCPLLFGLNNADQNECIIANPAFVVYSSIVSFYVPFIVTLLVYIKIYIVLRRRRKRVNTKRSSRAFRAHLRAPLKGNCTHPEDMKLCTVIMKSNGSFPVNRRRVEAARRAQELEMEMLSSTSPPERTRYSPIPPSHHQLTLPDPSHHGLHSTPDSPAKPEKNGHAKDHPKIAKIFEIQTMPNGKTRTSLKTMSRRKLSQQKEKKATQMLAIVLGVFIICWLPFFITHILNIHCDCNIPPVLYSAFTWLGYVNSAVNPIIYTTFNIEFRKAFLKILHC

The test deals with D(2) dopamine receptor (Homo sapiens) (UniProt P14416). Kind of test: HTS Assay for Allosteric Antagonists of the Human D2 Dopamine Receptor: Primary Screen for Antagonists. Note: 0% is about no effect. The settings on record: HEK293 TREx D2 cells, calcium flux, dopamine EC80; at 10 µM; stronger effect = higher value. Summed up:
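Calcium flux kinetic readout in an inducible HEK293 TREx D2 line plated overnight at 30 C. After 180 s compound exposure, an EC80 dopamine challenge follows with another 180 s kinetic read to detect antagonism.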
(In general: A change in cytosolic calcium serves as a functional read-out for many receptors and channels.)
Consider `COc1ccc(CNC(=O)CSc2c3c(nc4ccc(Cl)cc24)CCCC3)cc1`, for which the inhibition is 7.79%.
As for `CCc1nn(CC(=O)Nc2ccc(NC(C)=O)cc2)c(=O)c2cc3sccc3n12`, the inhibition came to 14.4%.
The value for `CCCCN(CC)CCCNC(=O)Cn1ncc2c3ccccc3n(Cc3ccc(F)cc3)c2c1=O` was 4.44%.
Regarding `Cn1c(=O)c(=O)n(C)c2cc(S(=O)(=O)N3CCN(c4ccccc4)CC3)ccc21`, the inhibition is -0.304%.
For the compound `Cc1ccc(C(=O)Nc2cccc(C(=O)OCc3cc(=O)n4nc(C5CC5)sc4n3)c2)cc1`, the inhibition was -26.4%.
The value for `Cc1c(C(=O)Nc2ccccc2Cl)oc2ccc(S(=O)(=O)N3CCCCC3)cc12` was -1.62%.
Then `CCCn1c2ccc(F)cc2c2nnc(SCCN(CC)CC)nc21`, with 18.7%; and `COCC(C)Nc1ncnc2c1cnn2-c1ccc(C)c(C)c1` (stereo unspecified), with 18.9%.
Then `CCCOc1ccc(C2CC(=O)Nc3c2c(=O)n(C)c(=O)n3C)cc1OC` (stereo unspecified), with 8.93%; and `CCOc1ccc(N2CC(NC(=O)C3CC3)CC2=O)cc1` (stereo unspecified), with 27.1%; and `COc1ccc(-n2nc(C(=O)NCc3ccc(F)cc3Cl)c3c4ccccc4n(C)c3c2=O)cc1Cl`, with -6.76%.
Regarding `Cc1ccc(-c2nc(N3CCCC(C)C3)c3ccccc3n2)cc1` (stereo unspecified), the inhibition stood at 2.1%.
For the compound `CCc1ccccc1NC(=O)CSc1nc2c(oc3ccccc32)c(=O)n1C`, the inhibition came to 18.7%.
As for `NC(=O)C1CCN(S(=O)(=O)c2ccc(N3CCCCS3(=O)=O)cc2)CC1`, the inhibition was 16.6%.
The value for `Cc1ccc(CN2CCCn3nc(C(=O)NCCc4ccccc4Cl)cc3C2=O)cc1` was 4.54%; that for `Cc1nn(C)c2c1c(-c1ccccc1)cc(=O)n2CC(=O)NC(C)C` was 8.72%; that for `COc1ccc(CCNCc2ccc3c(c2)n(C)c(=O)n3C)cc1OC` was 1.37%.
As to `CCc1nc(SC)ncc1C(=O)N1CCN(c2cc(C)ccc2C)CC1`, the inhibition was -3.14%.
As to `CCOC(=O)c1c(S(=O)(=O)N2CCCC(C(=O)NCc3ccccc3OC)C2)c(C)n(C)c1C` (stereo unspecified), the inhibition was -20%.
Then `Cc1ccsc1C(=O)Nc1ccccc1N1CCOCC1`, with active: 38.4%.
Then `Cc1ccc(NC(=O)c2ccc(=O)n(Cc3ccccc3C)c2)c(C)c1`, with 6.65%; and `Cc1ccc(CN2CCCn3nc(C(=O)NCCc4cccc(C)c4)cc3C2=O)cc1`, with -5.26%; and `COc1ccc(N2C(=O)CSC23C(=O)N(Cc2cccc(F)c2)c2ccccc23)cc1Cl` (stereo unspecified), with 0.155%.
Consider `O=S(=O)(c1ccc2nc(N3CCN(c4ccccc4F)CC3)ccc2c1)N1CCCCC1`, for which the inhibition was found to be 3.21%.
Then `Cc1nc(-n2nc(C)c(CCC(C)C)c2C)sc1C(=O)Nc1ccc(Cl)cc1`, with -12.7%; and `COc1ccc2c(c1)c1c(c(=O)n(-c3cccc(C)c3)c(=O)n1Cc1cccc(Cl)c1)n2C`, with 0.13%; and `O=C(c1cc2c(=O)oc3ccccc3c2s1)N1CCN(c2ccccc2)CC1`, with -2.03%.
With `O=C(Nc1cc2c(cc1C(=O)c1ccccc1Br)OCCO2)c1cccc(Cl)c1`, the inhibition stood at 12.7%.
Then `Cc1ccc(-n2nc(C)c3c(C)cc(=O)n(CC(=O)Nc4cccc(C)c4C)c32)cc1`, with -9.89%; and `COc1ccccc1CNc1ncnc2c1cnn2-c1ccc(C)cc1`, with 19.2%.
Then `COc1ccc(-c2nn(-c3ccccc3)cc2C2NC(=O)NC(C)=C2C(=O)OC(C)C)cc1OC` (stereo unspecified), with 7.69%; and `Cc1ccc(-c2noc(-c3nnn(-c4cccc(C(F)(F)F)c4)c3N)n2)cc1`, with -5.63%; and `CSc1ccccc1NC(=O)CSc1n[nH]c(C)c1[N+](=O)[O-]`, with active: 40.7%.
Then `COc1ccc(OC)c(S(=O)(=O)NCC(c2cccs2)S(=O)(=O)c2ccc(F)cc2)c1` (stereo unspecified), with 12.2%; and `Cc1ccccc1NC(=O)c1sc2nc3c(cc2c1N)CN(Cc1ccccc1)CC3`, with 6.49%.
In the case of `CCCS(=O)(=O)N1CCC(C(=O)NCCOC)CC1`, the inhibition was -22.6%.
The value for `Cc1cc(F)ccc1NC(=O)C1CCC(CNS(=O)(=O)c2ccc3c(c2)CCCC(=O)N3)CC1` (stereo unspecified) was 3.45%.
As for `COc1cccc(N2CCN(C(=O)CN3CCSc4ccccc43)CC2)c1`, the inhibition is -9.98%.
The value for `CCC(C)NC(=O)c1sc2nc(C)c(C(=O)Nc3ccc(C)cc3C)c(-c3ccc(NC(C)=O)cc3)c2c1N` (stereo unspecified) was 13.7%; that for `COCCNC(=O)CCCn1c(SCC(=O)NCc2ccc(C)cc2)nc2c(sc3ccccc32)c1=O` was 13.5%.
As to `COCCNc1ccc2cc(S(=O)(=O)N3CCCCC3)ccc2n1`, the inhibition amounted to 1.93%.
Then `Cc1ccc2nc(NC(=O)CSc3nccn3Cc3ccc(F)cc3)sc2c1`, with -3.25%.
For `O=C(O)c1ccc(Cn2c(SCc3ccc(F)cc3)nc3ccncc32)cc1`, the inhibition was -1.68%.
Turning to `CCc1ccc(NS(=O)(=O)c2[nH]ncc2C(=O)OC)cc1`, the inhibition is -25.2%.
The value for `Cc1ccccc1Cn1c(=O)n(-c2ccc(Cl)cc2)c(=O)c2c3c(sc21)CCCC3` was -7.72%.
With `CC(C)NC(=O)CN1C(=O)CCn2nc(-c3cn(C)c4ccccc34)cc21`, the inhibition worked out at 22.8%.
For `COc1ccc(Cn2c(C(=O)O)c(CNCc3ccc(SC)cc3)c3ccc(OC)cc32)cc1`, the inhibition is -11.6%.
The value for `COC(=O)c1ccccc1NC(=O)CSc1nc(C)c(Cl)c(C)c1C#N` was -11.9%.
For `Cc1ccc(-c2cc(C(=O)Oc3ccc(C#N)cc3)no2)cc1C`, the inhibition is -0.724%.
On to `CCOC(=O)c1cccc(NC(=O)c2cnc3sc(N4CCOCC4)nn3c2=O)c1`, for which the inhibition was -0.304%.
In the case of `CCOCCCNC(=O)c1cc(C)nn1-c1ccccc1`, the inhibition is active: 36.1%.
For `Cc1ccc2c(c1)c1c(c(=O)n(Cc3ccccc3)c(=O)n1CC(=O)Nc1ccccc1F)n2C`, the inhibition is 8.44%.
On to `Cc1ccccc1CCNC(=O)c1ccc2c(c1)nc1n2CCCCC1`, for which the inhibition was 10.5%.
Consider `Cc1cc(C)cc(NC(=O)C2CC(=O)N(c3ccccc3)C2)c1` (stereo unspecified), for which the inhibition is -4.31%.
Take `O=C(Nc1sc2c(c1C(=O)NCC1CCCO1)CCCC2)c1cc(=O)c2ccccc2o1` (stereo unspecified): the inhibition was -6.52%.
The value for `O=C(CCn1c(=O)c2sccc2n(Cc2ccc(F)cc2Cl)c1=O)NCc1ccc2c(c1)OCO2` was -3.73%; that for `Cc1ccc(-c2nc3ccccc3o2)cc1NC(=O)Cc1ccc(Cl)cc1` was 9.49%; that for `COc1ccc(OC)c(CNCc2c(C(=O)O)n(Cc3cccc(F)c3)c3cc(OC)ccc23)c1` was -4.15%.
As to `Cc1ccc(C(c2c(O)cc(C)n(Cc3ccco3)c2=O)N2CCC(C)CC2)cc1` (stereo unspecified), the inhibition came to 9.27%.
As for `Cc1cc(-c2ccc(C)c(S(=O)(=O)NCC3CCN(Cc4ccccc4F)CC3)c2)on1`, the inhibition came out at 10.7%.
The value for `O=C(Cn1ncc2c3ccccc3n(Cc3ccc(F)cc3)c2c1=O)NCc1ccccn1` was -1.99%; that for `Cc1ccc(SCC(=O)Nc2ccc3oc(-c4cccc(Cl)c4)nc3c2)cc1` was 9.34%; that for `CCc1ccc(NC(=O)CSc2nc(=O)n(Cc3ccncc3)c3c2CCC3)cc1` was 16.5%.
`Cc1cc2c(cc1S(=O)(=O)CCC(=O)N1CCCCC1C)OCC(=O)N2` (stereo unspecified): the inhibition was -13.9%.
Then `O=C(COCc1cc(-c2ccc3c(c2)OCO3)on1)Nc1cc(C(F)(F)F)ccc1Cl`, with -14%.
The value for `CCN1CCN(CCCNC(=O)Cn2c(-c3cccs3)cc3cc(F)ccc32)CC1` was 12.3%; that for `CCCCN(C)CCNC(=O)CN1C(=O)CSc2ccc(S(=O)(=O)N3CCCCC3)cc21` was 19.5%.
Then `CCOC(=O)N1CCc2c(sc(NCc3cccs3)c2C(=O)Nc2ccc(OC)cc2OC)C1`, with 7.01%; and `O=c1c(S(=O)(=O)c2ccccc2)cn(Cc2cccc(F)c2)c2cc(N3CCCC3)c(F)cc12`, with 25.9%; and `COc1ccccc1N1CCN(S(=O)(=O)CCNC(=O)Cc2ccc(Cl)cc2)CC1`, with 8.82%.
As to `Nc1ccc2oc(-c3ccccc3Cl)cc(=O)c2c1O`, the inhibition is active: 50.3%.
The value for `CCCS(=O)(=O)N1CC(=O)N(c2ccc(C)cc2C)C(C)(C(=O)NC2CCCCCC2)C1` (stereo unspecified) was -3.49%; that for `O=C(Cn1c(=O)nc(-c2ccccc2)c2cc(Cl)ccc21)NCc1ccc(Cl)cc1` was 2.55%; that for `COc1ccc(C(CC(=O)Nc2cc(OC)c(OC)c(OC)c2)N2Cc3ccccc3C2=O)cc1` (stereo unspecified) was 2.26%.
On to `O=C(Nc1cnn(Cc2ccc(Cl)cc2Cl)c1)c1noc2c1CCc1ccccc1-2`, for which the inhibition was -1.27%.
Then `O=C(CCS(=O)(=O)c1cc2c3c(c1)CCN3C(=O)CC2)Nc1cccc(Br)c1`, with 1.13%.
For `CCOc1ccc(CCNC(=O)c2ccc3c(c2)N(Cc2ccccc2F)C(=O)c2ccccc2S3=O)cc1OCC` (stereo unspecified), the inhibition turned out to be 7.85%.
In the case of `COc1ccc(CCNS(=O)(=O)c2cc(-c3onc(C)c3C)ccc2OC)cc1OC`, the inhibition is -1.41%.
The value for `Cc1ccc(CCNC(=O)c2c[nH]c3ccc(S(=O)(=O)Nc4cccc(C(F)(F)F)c4)cc3c2=O)cc1` was -10.1%.
Consider `CCC1=C(c2ccc(C)cc2)S(=O)(=O)N=C1N1CCC(C(=O)NCCc2ccc(Cl)cc2)CC1`, for which the inhibition is 8.19%.
For `O=C(CC1N=C2c3ccccc3N=C(SCc3cccc(Cl)c3)N2C1=O)NCCc1ccccc1` (stereo unspecified), the inhibition amounted to 11.1%.
For `Cc1ccc(S(=O)(=O)C(CNC(=O)C(=O)NCCc2ccc(Cl)cc2)c2cccs2)cc1` (stereo unspecified), the inhibition is -4.42%.
For `CCCCNC(=O)CCn1c(=O)c2cccn2c2cccnc21`, the inhibition was -9.23%.
Then `CCN(C(=O)c1c(C)oc2ncn(CC(C)C)c(=O)c12)c1cccc(Cl)c1`, with -7.96%.
The value for `COc1cc(/C=C2\SC(N3CCc4ccccc4C3)=NC2=O)cc(OC)c1OC` was active: 56.3%; that for `CCCn1c(CCC(=O)Nc2ccc(C)c(Cl)c2)nc2cccnc21` was 22.2%.
Turning to `Cc1oc(-c2ccc(C(=O)NCc3ccccc3Cl)cc2)nc1CN1CCc2ccccc21`, the inhibition was found to be 2.03%.
For `COc1ccc(C)cc1NC(=O)c1cc(S(=O)(=O)N2CCc3ccccc3C2)ccc1F`, the inhibition is -8.55%.
The value for `CC(=O)N(C(C)=O)c1nc2nc(C)cc(C)n2n1` was active: 102%.
On to `Cc1ccc(-n2c(=O)c3c(c4cc(C)ccc4n3C)n(Cc3ccc(F)cc3)c2=O)cc1`, for which the inhibition worked out at 4.15%.
Then `Cc1ccc(NC(=O)C(Cc2ccccc2)N2Cc3ccccc3C2=O)cc1Cl` (stereo unspecified), with 14.2%; and `O=C(c1cc(F)ccc1F)C1CCCN(C(=O)CCN2CCCCO2)C1` (stereo unspecified), with active: 31.7%.
For the compound `CC(C)c1ccc(NC(=O)c2ccc3c(O)c(S(=O)(=O)c4ccccc4)c(=O)[nH]c3c2)cc1`, the inhibition turned out to be 2.32%.
Then `O=C(NCCCN1CCCC1=O)c1ccc2c(c1)NC(=O)C(N1CCOCC1)S2` (stereo unspecified), with active: 32.9%.
Then `O=c1c2ccccc2n2c(-c3ccccc3F)nnc2n1CCc1ccccc1`, with 13.2%; and `CC(C)[C@@H](C(=O)OCC(=O)Nc1ccc2c(c1)OCO2)N1C(=O)c2ccccc2C1=O`, with active: 46.3%.

In general, inhibition refers to the relative decrease from the control value, in per cent.
